The values that follow come from the supplement of paper PMC10037445.

In assay [1] the test system is RAW-Dual. Briefly: IRF Lucia reporter activity, fold change vs agonist alone; cytotoxicity flag (confluency mask): not cytotoxic; higher = enhanced IRF activity. In short, it runs like this:
(§1)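 After 50 nL of library stock was delivered by pin tool to RAW-Dual macrophages (50,000 cells/well, DMEM, 384-well plates), a PRR agonist was added 1 h later and the plates were kept at 37 °C, 5% CO2. Twenty hours later, IRF was read from supernatant by QuantiLuc luminescence and NF-κB by QuantiBlue absorbance at 620 nm. Reporter activity is stated as fold change over agonist-alone wells. Wells with IncuCyte confluency under 70% of agonist controls in both mask sets were counted as cytotoxic.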

Assay [2] has as its system RAW-Dual. Briefly: IRF Lucia reporter activity, fold change vs agonist alone; higher = enhanced IRF activity. Conditions: agonist: MPLA (TLR4) […]. An outline of the steps: as §1
Assay [3] relates to RAW-Dual. Briefly: IRF Lucia reporter activity, fold change vs agonist alone; cytotoxicity flag (confluency mask): cytotoxic (confluency <70% of control); higher = enhanced IRF activity. An outline of the steps:
as §1

Setting [4] is: agonist: 3'3'-cGAMP (STING) 10 ug/mL.
Where [5] appears, read: library stock concentration (final ~1000-fold dilution): 10 mM, cytotoxicity flag (confluency mask): not cytotoxic.

In all, about 2,900 compounds were measured (“IRF Lucia reporter activity, fold change vs agonist alone”: median about 0.9, highest 2% from about 2.8 on). This is one part of the list.

Turning to `CC1(C)C=C(CN2C/C(=C\c3ccc(F)cc3)C(=O)/C(=C/c3ccc(F)cc3)C2)C(C)(C)N1O` (library stock concentration (final ~1000-fold dilution): 10 mM), the figures for the “IRF Lucia reporter activity” value with RAW-Dual [1] (setting [4]) and in the assay on RAW-Dual [1] (agonist: LPS (TLR4) 0.1 ug/mL) were 0.118 and 0.531, respectively.
For `CC1(C)C=C(CN2C/C(=C\c3ccc(F)cc3)C(=O)/C(=C/c3ccc(F)cc3)C2)C(C)(C)N1O`, the “IRF Lucia reporter activity” value in the assay on RAW-Dual [2] (setting [5]) stood at 0.967.
As for `Nc1ncn(C2CC(O)C(CO)O2)c(=O)n1` (stereo not drawn) (library stock concentration (final ~1000-fold dilution): 10 mM), the figures for the “IRF Lucia reporter activity” value in the assay on RAW-Dual [1] (setting [4]) and with RAW-Dual [1] (agonist: LPS (TLR4) 0.1 ug/mL) were 1.18 and 1.48, respectively.
Consider `Nc1ncn(C2CC(O)C(CO)O2)c(=O)n1` (stereo not drawn), for which, in the assay on RAW-Dual [2] (setting [5]), the “IRF Lucia reporter activity” value was 1.46.
For `COc1ccc(-c2oc3c(CC=C(C)C)c(O)cc(O)c3c(=O)c2OC2OC(C)C(O)C(O)C2O)cc1` (stereo not drawn), the “IRF Lucia reporter activity” value with RAW-Dual [2] (library stock concentration (final ~1000-fold dilution): 10 mM, cytotoxicity flag (confluency mask): cytotoxic (confluency <70% of control)) was 0.839.
Regarding `COc1ccc(-c2oc3c(CC=C(C)C)c(O)cc(O)c3c(=O)c2OC2OC(C)C(O)C(O)C2O)cc1` (stereo not drawn) (library stock concentration (final ~1000-fold dilution): 10 mM), the “IRF Lucia reporter activity” value turned out to be 0.425 with RAW-Dual [3] (setting [4]) and 0.805 in the assay with RAW-Dual [3] (agonist: LPS (TLR4) 0.1 ug/mL).
For the compound `NNC(=O)c1ccncc1` (library stock concentration (final ~1000-fold dilution): 10 mM), the “IRF Lucia reporter activity” value in the assay on RAW-Dual [1] (setting [4]) amounted to 1.02; with RAW-Dual [1] (agonist: LPS (TLR4) 0.1 ug/mL) it was 0.747.
Take `NNC(=O)c1ccncc1`: the “IRF Lucia reporter activity” value in the assay with RAW-Dual [2] (setting [5]) was determined as 0.949.
As to `CN(C(=O)CCCOc1ccc2[nH]c(=O)ccc2c1)C1CCCCC1`, in the assay with RAW-Dual [2] (setting [5]), the “IRF Lucia reporter activity” value was determined as 0.922.
As for `CN(C(=O)CCCOc1ccc2[nH]c(=O)ccc2c1)C1CCCCC1` (library stock concentration (final ~1000-fold dilution): 10 mM), the “IRF Lucia reporter activity” value in the assay on RAW-Dual [1] (setting [4]) was 0.965; in the assay on RAW-Dual [1] (agonist: LPS (TLR4) 0.1 ug/mL), 0.574.
In the case of `Cl.OC1C=C2CCN3Cc4cc5c(cc4C(C1O)C23)OCO5` (stereo not drawn), the “IRF Lucia reporter activity” value with RAW-Dual [2] (setting [5]) amounted to 1.34.
Consider `Cl.OC1C=C2CCN3Cc4cc5c(cc4C(C1O)C23)OCO5` (stereo not drawn) (library stock concentration (final ~1000-fold dilution): 10 mM), for which the “IRF Lucia reporter activity” value in the assay on RAW-Dual [1] (setting [4]) is 0.206; with RAW-Dual [1] (agonist: LPS (TLR4) 0.1 ug/mL), 1.56.
The corresponding values for `CCN(CC)CCNC(=O)c1ccc(N)cc1.Cl` (library stock concentration (final ~1000-fold dilution): 10 mM) are 1.01 and 1.12.
`CCN(CC)CCNC(=O)c1ccc(N)cc1.Cl`: in the assay with RAW-Dual [2] (setting [5]), the “IRF Lucia reporter activity” value was 1.06.
Consider `Cc1ccc(S(=O)(=O)OCC(=O)Nc2ccc(C(=O)O)c(O)c2)cc1` (library stock concentration (final ~1000-fold dilution): 10 mM), for which the “IRF Lucia reporter activity” value in the assay with RAW-Dual [1] (setting [4]) was found to be 0.977; in the assay on RAW-Dual [1] (agonist: LPS (TLR4) 0.1 ug/mL) it was 0.0308.
For the compound `Cc1ccc(S(=O)(=O)OCC(=O)Nc2ccc(C(=O)O)c(O)c2)cc1`, in the assay with RAW-Dual [2] (setting [5]), the “IRF Lucia reporter activity” value is 0.969.
For the compound `O=C(CCc1ccc(O)cc1)c1c(O)cc(OC2OC(CO)C(O)C(O)C2O)cc1O` (stereo not drawn) (library stock concentration (final ~1000-fold dilution): 10 mM), the “IRF Lucia reporter activity” value with RAW-Dual [1] (setting [4]) was 0.953; in the assay on RAW-Dual [1] (agonist: LPS (TLR4) 0.1 ug/mL) it was 1.02.
As to `Cc1nnc(NC(=O)c2nc(S(=O)(=O)Cc3ccc(F)cc3)ncc2Cl)s1` (library stock concentration (final ~1000-fold dilution): 10 mM), the “IRF Lucia reporter activity” value was determined as 0.0452 in the assay with RAW-Dual [1] (setting [4]) and 0.308 in the assay on RAW-Dual [1] (agonist: LPS (TLR4) 0.1 ug/mL).
For `C=C(C)C1CCC2(C(=O)O)CCC3(C)C(CCC4C5(C)CCC(O)C(C)(C)C5CCC43C)C12` (stereo not drawn) (library stock concentration (final ~1000-fold dilution): 10 mM), the figures for the “IRF Lucia reporter activity” value with RAW-Dual [1] (setting [4]) and in the assay on RAW-Dual [1] (agonist: LPS (TLR4) 0.1 ug/mL) were 1.04 and 1.02, respectively.
As for `C=C(C)C1CCC2(C(=O)O)CCC3(C)C(CCC4C5(C)CCC(O)C(C)(C)C5CCC43C)C12` (stereo not drawn), the “IRF Lucia reporter activity” value in the assay on RAW-Dual [2] (setting [5]) turned out to be 0.981.
On to `CCCCCOc1ccc(-c2cc(-c3ccc(C(=O)NC4CC(O)C(O)NC(=O)C5C(O)C(C)CN5C(=O)C(C(O)CC(N)=O)NC(=O)C(C(O)C(O)c5ccc(O)c(OS(=O)(=O)O)c5)NC(=O)C5CC(O)CN5C(=O)C(C(C)O)NC4=O)cc3)no2)cc1` (stereo not drawn), for which the “IRF Lucia reporter activity” value with RAW-Dual [2] (library stock concentration (final ~1000-fold dilution): 10 mM water, cytotoxicity flag (confluency mask): not cytotoxic) was found to be 1.1.
With `CCCCCOc1ccc(-c2cc(-c3ccc(C(=O)NC4CC(O)C(O)NC(=O)C5C(O)C(C)CN5C(=O)C(C(O)CC(N)=O)NC(=O)C(C(O)C(O)c5ccc(O)c(OS(=O)(=O)O)c5)NC(=O)C5CC(O)CN5C(=O)C(C(C)O)NC4=O)cc3)no2)cc1` (stereo not drawn) (library stock concentration (final ~1000-fold dilution): 10 mM water), the “IRF Lucia reporter activity” value with RAW-Dual [1] (setting [4]) was determined as 0.651; in the assay with RAW-Dual [1] (agonist: LPS (TLR4) 0.1 ug/mL) it was 0.974.
Regarding `CN1CCN(C(=O)c2cc3cc(Cl)ccc3[nH]2)CC1`, the “IRF Lucia reporter activity” value with RAW-Dual [2] (setting [5]) came to 1.13.
With `CN1CCN(C(=O)c2cc3cc(Cl)ccc3[nH]2)CC1` (library stock concentration (final ~1000-fold dilution): 10 mM), the “IRF Lucia reporter activity” value in the assay with RAW-Dual [1] (setting [4]) came out at 0.958; in the assay with RAW-Dual [1] (agonist: LPS (TLR4) 0.1 ug/mL) it was 0.89.
For the compound `O=C(O)C1(Cc2cccc(Nc3nccs3)n2)CCC(Oc2cccc(Cl)c2F)CC1` (stereo not drawn) (library stock concentration (final ~1000-fold dilution): 10 mM), the entries for the “IRF Lucia reporter activity” value in the assay on RAW-Dual [1] (setting [4]) and in the assay with RAW-Dual [1] (agonist: LPS (TLR4) 0.1 ug/mL) were 0.686 and 0.779, respectively.
Regarding `O=C(O)C1(Cc2cccc(Nc3nccs3)n2)CCC(Oc2cccc(Cl)c2F)CC1` (stereo not drawn), the “IRF Lucia reporter activity” value in the assay with RAW-Dual [2] (setting [5]) came out at 0.949.
On the same count and under the same terms, next, `N#CC1(c2ccc(NC(=O)c3cccnc3NCc3ccncc3)cc2)CCCC1`: 1.01.
On to `N#CC1(c2ccc(NC(=O)c3cccnc3NCc3ccncc3)cc2)CCCC1` (library stock concentration (final ~1000-fold dilution): 10 mM), for which the “IRF Lucia reporter activity” value in the assay with RAW-Dual [1] (setting [4]) turned out to be 0.173; in the assay on RAW-Dual [1] (agonist: LPS (TLR4) 0.1 ug/mL), 1.14.
